Measurements from publication PMC4402546.
Results are given in words; binding and its absence hold for the method and conditions named. Some entries that bind do so weakly or less than the wild type.

T1: ORRM2 (organelle RRM protein 2), mature coding sequence (Arabidopsis) (UniProt Q9FIU6)
T1 sequence: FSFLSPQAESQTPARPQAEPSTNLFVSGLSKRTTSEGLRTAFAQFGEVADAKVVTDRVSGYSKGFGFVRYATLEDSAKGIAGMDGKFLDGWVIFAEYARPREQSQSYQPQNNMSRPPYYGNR

T2: ORRM3 (organelle RRM protein 3), mature coding sequence (Arabidopsis) (UniProt Q9FNR1)
T2 sequence: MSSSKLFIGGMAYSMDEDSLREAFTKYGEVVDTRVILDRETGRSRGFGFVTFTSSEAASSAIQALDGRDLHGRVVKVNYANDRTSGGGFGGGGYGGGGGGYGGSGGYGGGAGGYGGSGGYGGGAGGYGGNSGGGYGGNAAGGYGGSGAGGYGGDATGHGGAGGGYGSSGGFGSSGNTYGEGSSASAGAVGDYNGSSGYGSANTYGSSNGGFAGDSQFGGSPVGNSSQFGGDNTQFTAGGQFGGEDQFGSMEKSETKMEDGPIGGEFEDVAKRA


What was measured:
[1] = target: T1, ORRM2 (organelle RRM protein 2), mature coding sequence (Arabidopsis); assay: two-hybrid; yeast strain PJ69-4 a and alpha, double transformants by mating; spotted at 1 x 10^6 and 1 x 10^5 cells/ml on media without leucine, tryptophan, adenine and histidine; empty vectors as control for auto-activation; read 2 d to 10 d after spotting
[2] = target: T2, ORRM3 (organelle RRM protein 3), mature coding sequence (Arabidopsis); assay: as above

| Binder | binding [1] | binding [2] |
| --- | --- | --- |
| RIP1 (RNA-editing factor interacting protein 1) (protein, UniProt Q9LKA5 57-395) GGLVSVKGLSTQATSSSLNDPNPNWSNRPPKETILLDGCDFEHWLVVVEPPQGEPTRDEIIDSYIKTLAQIVGSEDEARMKIYSVSTRCYYAFGALVSEDLSHKLKELSNVRWVLPDSYLDVRNKDYGGEPFIDGKAVPYDPKYHEEWIRNNARANERNRRNDRPRNNDRSRNFERRRENMAGGPPPQRPPMGGPPPPPHIGGSAPPPPHMGGSAPPPPHMGQNYGPPPPNNMGGPRHPPPYGAPPQNNMGGPRPPQNYGGTPPPNYGGAPPANNMGGAPPPNYGGGPPPQYGAVPPPQYGGAPPQNNNYQQQGSGMQQPQYQNNYPPNRDGSGNPYQG | no binding | binds |
| ORRM3 (organelle RRM protein 3), mature coding sequence (protein, UniProt Q9FNR1 37-309) MSSSKLFIGGMAYSMDEDSLREAFTKYGEVVDTRVILDRETGRSRGFGFVTFTSSEAASSAIQALDGRDLHGRVVKVNYANDRTSGGGFGGGGYGGGGGGYGGSGGYGGGAGGYGGSGGYGGGAGGYGGNSGGGYGGNAAGGYGGSGAGGYGGDATGHGGAGGGYGSSGGFGSSGNTYGEGSSASAGAVGDYNGSSGYGSANTYGSSNGGFAGDSQFGGSPVGNSSQFGGDNTQFTAGGQFGGEDQFGSMEKSETKMEDGPIGGEFEDVAKRA | binds | binds |
| RIP3 (protein, UniProt Q84JZ6 63-244) TSGSGYSPLNDPSPNWSNRPPKETILLDGCDYEHWLIVMEFTDPKPTEEEMINSYVKTLTSVLGCEEEAKKKIYSVCTSTYTGFGALISEELSCKVKALPGVLWVLPDSYLDVPNKDYGGDLYVEGKVIPRPQYRFTEQRHTRPRPRPRYDRRRETMQVERREPSMGLHSPVNPGEFNKPSA | no binding | no binding |
| ORRM2 (organelle RRM protein 2), mature coding sequence (protein, UniProt Q9FIU6 35-156) FSFLSPQAESQTPARPQAEPSTNLFVSGLSKRTTSEGLRTAFAQFGEVADAKVVTDRVSGYSKGFGFVRYATLEDSAKGIAGMDGKFLDGWVIFAEYARPREQSQSYQPQNNMSRPPYYGNR | no binding |  |
